In PMC12136788:
Residue numbers refer to the chain shown, from its start. Some of the results follow.

T1: UNK ZnF1-3 (human, UniProt Q9C0B0 31-174)
T1 sequence: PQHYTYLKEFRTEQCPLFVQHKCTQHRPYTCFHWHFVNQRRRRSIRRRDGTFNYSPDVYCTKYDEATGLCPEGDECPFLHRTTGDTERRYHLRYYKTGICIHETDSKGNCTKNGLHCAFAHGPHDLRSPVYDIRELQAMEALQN

B1: chr5:128440902:128440903:+_ENSG00000066583_ENST00000173527|hu_mus|hu_hu_hu_mus_True|58_68 (ssRNA)
RNA: GGGAGUUCUACAGUCCGACGAUCUUGAACGGUGCUGCCAAGUCCUUUGGGGUAUUGUUCCGUUAUGAUAACAGGAAUUCCUAAAAUCCGAGCUCCUUGCAACAGUCUCUGUCCCACACUAAUGAUGUCCCCAAAGUAUUUGAUCAACAGAGGAUUGAGCAUCA
B2: chr4:57314706:57314707:+_ENSG00000128050_ENST00000264221|hu_mus|hu_hu_hu_mus_True|48_48 (ssRNA)
RNA: GGGAGUUCUACAGUCCGACGAUCCAGAAUUUCAAAAAUAGCUUGUGUGGCAUGACUCAUGAUGUCCACUUCAGUCUGCCCUAUAACAAGUCCAGCAAAACAGAAUUUUGCAGCAAUGAGUUGCUCCUCAGACCACUGUGGAUCCAACAGAGGAUUGAGCAUCA
B3: chr11:100882373:100882374:+_ENSMUSG00000019302_ENSMUST00000044721|mus_mus|mus_mus_mus_hu_True|28_68 (ssRNA)
RNA: GGGAGUUCUACAGUCCGACGAUCUUCCUGGUUUGUGUUGAUUUCCUUCAGUUCAUUUUCAAUCUUCUCGAAAUUGGCCUCUAAGUCAAUCAUGUCCCGGGGGAAGGGCACCUCUGGGUUUUCACCGGUGUCCAUAAUCGGAAUCAACAGAGGAUUGAGCAUCA
B4: chr6:38652254:38652255:-_ENSG00000124767_ENST00000373365|hu_hu|hu_hu_hu_mus_False|18_68 (ssRNA)
RNA: GGGAGUUCUACAGUCCGACGAUCCGAGAACUUCAUAGCAGGGAAGUCAAGCUUCUGCAGGAGGGUCAUUCCAAGAACCCUCGUAUAAAAAUCCAGGGACUUCUUAGGAUCCUUAAUUCGUAGCAUGGUUUGCUGCAGUAGAAACAACAGAGGAUUGAGCAUCA
B5: chr1:193053832:193053833:+_ENSG00000116747_ENST00000432079|hu_hu|FALSE|FALSE (ssRNA)
RNA: GGGAGUUCUACAGUCCGACGAUCGAUCACUGAUGGCAAUGGAUCUCUGGAUCGUGCUGCUGCUUAUGGUUAAAUCAUAUCUAAUGUGAAAUUUCGAAUUACAUCCAGAGCUCCAGUAUCAAAGCCGCACAUAUCCAACAUGCCCAACAGAGGAUUGAGCAUCA
B6: 92161760_92163732_446_CDS_ENSG00000127993_ENST00000265732|human|control|control (ssRNA)
RNA: GGGAGUUCUACAGUCCGACGAUCCUUUGUCACGUAAUGGUCUUUAUUUUCAGUAGUUUUUACUACAUAUGCCUUCCGCAUUUGUAGUUUUUUUCUAGUUUCUUCAACUGUUUCAAAUUCUGGAGCAUAGCACACAUGAAGCAACAACAGAGGAUUGAGCAUCA
B7: chr11:2966284:2966285:-_ENSG00000205531_ENST00000380542|hu_mus|FALSE|FALSE (ssRNA)
RNA: GGGAGUUCUACAGUCCGACGAUCGAGGGUGAACCCGAUGGCUCUGGCCUCAGAGGUGUGUGCCACAACCCACCCACCCCUAAAACCAAAACGCAAGAAAAAAAAUGCUCUAAGGCGAGCACAGCUUCCUCUACAGUGCUUGGGCAACAGAGGAUUGAGCAUCA
B8: chr4:57314706:57314707:+_ENSG00000128050_ENST00000264221|hu_mus|hu_hu_hu_mus_True|48_98 (ssRNA)
RNA: B2 RNA with U42C
B9: chr17:13112271:13112272:+_ENSMUSG00000068039_ENSMUST00000151287|mus_mus|motif|central (ssRNA)
RNA: GGGAGUUCUACAGUCCGACGAUCAAUCAGGUUCUCAUUGAUAUAACGCACCGCUUCCUUGCAGGCAAGACGAUAGCCACGGAUAACUGAUGUUGGAUGAAUUUUCUGUUUGACUAGCUCAUCUGCAUUUUUCAGAAGCUCCGCCAACAGAGGAUUGAGCAUCA
B10: chr11:87794392:87794393:-_ENSMUSG00000020483_ENSMUST00000020775|mus_mus|FALSE|FALSE (ssRNA)
RNA: GGGAGUUCUACAGUCCGACGAUCCACACCCACCCCUGCCCCAAGCCAUAGUCACAGUUCUGUGGAAUAUUCUCCCCGGUACUAGAGCCACCACCCCCCCCCCCACCUUCCUGCCCCUCUCCUUGCCAAUCCUAACCCUGUCCUCAACAGAGGAUUGAGCAUCA
B11: chr15:40510687:40510688:+_ENSG00000156970_ENST00000287598|hu_mus|motif|central (ssRNA)
RNA: GGGAGUUCUACAGUCCGACGAUCCCAGAGGAGUCCAUCCCAGAAGACAUGGAGGUGCUCCUUGAACAGGAGUAAGUGCGCGGGGUCUGCUAUACCCAACAGAUCUACAUGGUAGGGAGAAGAACAGUUAGCCAGGAUCUUUUGCAACAGAGGAUUGAGCAUCA
B12: chr7:99057753:99057754:-_ENSG00000241468_ENST00000394186|hu_mus|FALSE|FALSE (ssRNA)
RNA: GGGAGUUCUACAGUCCGACGAUCCCGGUCAUACCCUCUCCGAAAGGCUCCGGCAAUGCCACUGGGGGUGAAAUCCCGCAUCAUUAUCCAGCUCGGCAGCUCUCCAAGUUUGACUUCCAUGAGCUUCUUCUCCUUCAGCGGCACCAACAGAGGAUUGAGCAUCA
B13: chr3:176767854:176767855:-_ENSG00000177565_ENST00000430069|hu_hu|FALSE|FALSE (ssRNA)
RNA: GGGAGUUCUACAGUCCGACGAUCGACAUCCUUGUUGCUUGGAACAUCUUGCCCUCCUUCUCGUAUACAAUGUCUAAGUACUAACUGUGUAGAGCCACUGGUGCUGUUCUCACUAAGAUUCCAUAUUCUUGCUGUUGAGUCUCCCAACAGAGGAUUGAGCAUCA
B14: chr15:66169770:66169771:+_ENSG00000103769_ENST00000567671|hu_hu|motif|central (ssRNA)
RNA: GGGAGUUCUACAGUCCGACGAUCGUCCCAUAUCUGUGCCUUUAUUGUUUUUCCAUCAACCUGGAUGCUUCUUGUUGCAAACUCGGCUCCAAUGGUGCUCUUGCUUUCCAGAUUAAACUCAUUUCGAGUAAAUCGAGACAGGAGCAACAGAGGAUUGAGCAUCA
B15: chr15:83907240:83907241:-_ENSMUSG00000018865_ENSMUST00000082365|mus_mus|FALSE|FALSE (ssRNA)
RNA: GGGAGUUCUACAGUCCGACGAUCGCUGUGAAAGAUACUAAUUCUUGGUGCAGUCUGGCAUCUGUGGGGCCUCUUCCACACCUACCAGUGCCUUCAGAUGCCACCCGCAGCCUCGGGCCAGCUUCCCUGCCGAAACAUUCCUUGCAACAGAGGAUUGAGCAUCA
B16: chr1:220276048:220276049:+_ENSG00000067704_ENST00000302637|hu_hu|hu_hu_hu_mus_True|28_28 (ssRNA)
RNA: GGGAGUUCUACAGUCCGACGAUCGCAAAUUGCCUGGUUGGCGGGAAUUGUCCAAGGCUGGGUGGUCCAAACUAAAACGCUAACAGGGGAUGAGGCAUCUGUAAGAGAUGCCAAUUUCGGAGGAGGUCUCAGGAGGGGGAAUCUCAACAGAGGAUUGAGCAUCA
B17: chr4:83987663:83987664:+_ENSG00000138663_ENST00000264389|hu_mus|FALSE|FALSE (ssRNA)
RNA: GGGAGUUCUACAGUCCGACGAUCGCGUCCUUCCGUUAUCAUCUGAGAUGCUAUCUUUUCUGCCUUAGCUGCAGGGAUCUCUAAAAGAGCUCCAAGUUCUUCAAAGGUGAUAUUGUUAUAUAAUUUGCUUGCUGACAACAAAUUCAACAGAGGAUUGAGCAUCA
B18: 87593645_87610160_308_CDS_ENSG00000163629_ENST00000511467|human|control|control (ssRNA)
RNA: GGGAGUUCUACAGUCCGACGAUCAGGUUGGCUCUGAGGCACUUCAUAAUCAGCCCCCCAAUACAGUGUCAUUCCAAGAGAAUAAAUGUGGAUCUUUUCAACAUCUGAGAGAGAAGUUAGUGACUGAUUUUGAAGAACCUCUGGCAACAGAGGAUUGAGCAUCA
B19: 93070052_93071552_624_CDS_ENSMUSG00000020964_ENSMUST00000021347|mouse|control|control (ssRNA)
RNA: GGGAGUUCUACAGUCCGACGAUCCCCGGCCUGAUAGAUCAUCUCUGCUUCCUGCAUCUGUCGUCUUUUGGCAGCAUCUUCUUCAGUUUCGCAGAAGCCCCACUUCUCAUCUGUCUUGUAGUCAUAGGUUGUGGCACACCACAGCAACAGAGGAUUGAGCAUCA
B20: chr4:48249827:48249828:-_ENSMUSG00000028343_ENSMUST00000030028|mus_hu|FALSE|FALSE (ssRNA)
RNA: GGGAGUUCUACAGUCCGACGAUCCUCAAAAAUUGGAUGCAACAUCUGACUGAAACGACACCAGUCAGCAUAAAAAUUUACUAAAGCAACAUCAGCAUUGUUUAAAAUUUCAUCUAUAUUCUCUGUAUCAAGACUUGUUAUUUCCAACAGAGGAUUGAGCAUCA
B21: chr11:106117246:106117247:-_ENSMUSG00000020706_ENSMUST00000021048|mus_hu|FALSE|FALSE (ssRNA)
RNA: GGGAGUUCUACAGUCCGACGAUCUUUGUAAGUUGAAAGUUGAGACUAGGAAGGCAUAUCACAAGAACUAUAAACAGAGUUUCAAUGAGGCAACACUGAGGAGGAGUUCUACUCCUUCCUCAUCCCCUUCCAAAGCCCCUGAACCAACAGAGGAUUGAGCAUCA
B22: 113440550_113440670_831_3pUTR_ENSG00000121579_ENST00000240922|human|control|control (ssRNA)
RNA: GGGAGUUCUACAGUCCGACGAUCGGGCCUCUCUUUUAUUUGGCGACAAGCAAGUGCAAGAAAGUUCAUUUGUAAUUUGUUCAGUUGUCUGUCUUUUGCACAUCUGCAUUCUGACCAGAAGGAACUUUGAGGUUUUUCUGCAGCCAACAGAGGAUUGAGCAUCA

What follows are binders tested against T1, UNK ZnF1-3 (assay: nsRBNS (natural sequence RNA bind-n-seq); RBNS binding buffer (assumed for nsRBNS): 25 mM Tris pH 7.5, 150 mM KCl, 3 mM MgCl2, 0.01% Triton X-100, 500 ug/ml BSA, 20 U/ml SUPERase-In, 4 C; UNK is unkempt and MSI1 is Musashi-1; names of the RNAs are library labels; protein concentration not given here; high values mean tight binding).
B1 gave a binding signal of 1.01 enrichment R.
B2 was tested, and the binding signal was 1.04 enrichment R.
Work on B3 yielded a binding signal of 0.488 enrichment R.
For B4, the binding signal was 0.632 enrichment R.
B5 showed a binding signal of 0.913 enrichment R.
B6 was tested, and the binding signal was 0.553 enrichment R.
B7 was tested, and the binding signal was 0.851 enrichment R.
For B8, the binding signal was 0.997 enrichment R.
B9 was tested, and the binding signal was 0.9 enrichment R.
Work on B10 yielded a binding signal of 1.01 enrichment R.
B11 showed a binding signal of 1.02 enrichment R.
B12 gave a binding signal of 0.838 enrichment R.
B13 was tested, and the binding signal was 0.545 enrichment R.
Work on B14 yielded a binding signal of 0.618 enrichment R.
B15 gave a binding signal of 0.819 enrichment R.
With B16 the binding signal was 2.61 enrichment R.
B17 was tested, and the binding signal was 0.731 enrichment R.
B18 gave a binding signal of 0.735 enrichment R.
With B19 the binding signal was 0.647 enrichment R.
For B20, the binding signal was 2.05 enrichment R.
Binder B21 has a binding signal of 1.37 enrichment R.
B22 gave a binding signal of 0.948 enrichment R.
